# According to the supplement of paper PMC8728848:
# Some of the results follow.
# B1: Gal 9 (Canis lupus) (protein)
# chain: MAFSSSQPPYLSPGVPFSGKIQGGLQDGLKITINGTILYCNGTRFAVNFHSGHSDSDIAFHFNPRFEEGGYVVCNTKQKGSWGSEERKMQMPFQMGNPFELCFMVNSCDFKVTVNGSHFTQYSHRVPFHYVDTLSITGAVQLSYISFQSPGVWQSSSAPITQTVIHTVQTTPGQPFPNPIIPPTAYPTPTYPMPFFTSIPGGLYPSKSIIVSGTVLPGAKRFHINLRSGNDIAFHLNPRFNENTVVRNMQINNSWGSEERSLPRKMPFVQGQSFSVWIMCEGHCFKVAVDGEHLFEYYHRLKNLLAINNMEVAGDVQLTHVQT
# Assays:
# Assay in all cases: glycan array binding signal (z-score within array); higher = stronger binding
# Conditions in all cases: glycan notation: IUPAC condensed, linker removed
# [1] = target: Fuc(a1-3)[Gal(b1-4)]GlcNAc(b1-2)Man(a1-3)[Fuc(a1-3)[Gal(b1-4)]GlcNAc(b1-2)Man(a1-6)]Man(b1-4)GlcNAc(b1-4)[Fuc(a1-6)]GlcNAc
# Outline: (§1)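 From the Consortium for Functional Glycomics database, 3228 arrays were curated, keeping only those whose protein sequence was available. Binding is given as a within-array Z-score averaged across arrays sharing a protein sequence and across linkers. Negative Z-scores can be read as non-binding.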
# [2] = target: Fuc(a1-3)[Gal(b1-4)]GlcNAc(b1-3)Gal(b1-3)[Fuc(a1-4)]GlcNAc
# Outline: as §1
# [3] = target: Fuc(a1-3)[Gal(b1-4)]GlcNAc(b1-3)GalNAc
# Outline: as §1
# [4] = target: Fuc(a1-3)[Gal(b1-4)]GlcNAc(b1-4)Gal(b1-4)[Fuc(a1-3)]GlcNAc
# Outline: as §1
# [5] = target: Fuc(a1-3)[Gal(b1-4)]GlcNAc(b1-4)Gal(b1-4)[Fuc(a1-3)]GlcNAc(b1-4)Gal(b1-4)[Fuc(a1-3)]GlcNAc
# Outline: as §1
# [6] = target: Fuc(a1-3)[Gal(b1-4)]GlcNAc(b1-6)GalNAc
# Outline: as §1
# [7] = target: Fuc(a1-3)[Gal(b1-4)]GlcNAc(b1-6)[Gal(b1-3)GlcNAc(b1-3)]Gal(b1-4)Glc
# Outline: as §1
# [8] = target: Fuc(a1-3)[Gal(b1-4)]GlcNAc(b1-6)[Neu5Ac(a2-3)Gal(b1-3)]GalNAc
# Outline: as §1
# [9] = target: Fuc(a1-3)[Gal(b1-4)]GlcNAc6S
# Outline: as §1
# [10] = target: Fuc(a1-3)[Gal3S(b1-4)]GlcNAc
# Outline: as §1
# [11] = target: Fuc(a1-3)[Gal3S(b1-4)]GlcNAc6S
# Outline: as §1
# [12] = target: Fuc(a1-3)[GalNAc(b1-4)]GlcNAc
# Outline: as §1
# [13] = target: Fuc(a1-4)GlcNAc
# Outline: as §1
# [14] = target: Fuc(b1-3)GlcNAc
# Outline: as §1
# [15] = target: Gal(a1-2)Gal
# Outline: as §1
# [16] = target: Gal(a1-3)Gal
# Outline: as §1
# [17] = target: Gal(a1-3)Gal(b1-3)GlcNAc
# Outline: as §1
# [18] = target: Gal(a1-3)Gal(b1-3)GlcNAc(b1-2)Man(a1-3)[Gal(a1-3)Gal(b1-3)GlcNAc(b1-2)Man(a1-6)]Man(b1-4)GlcNAc(b1-4)GlcNAc
# Outline: as §1
# [19] = target: Gal(a1-3)Gal(b1-3)GlcNAc(b1-3)GalNAc
# Outline: as §1
# [20] = target: Gal(a1-3)Gal(b1-3)[Fuc(a1-4)]GlcNAc(b1-2)Man(a1-3)[Gal(a1-3)Gal(b1-3)[Fuc(a1-4)]GlcNAc(b1-2)Man(a1-6)]Man(b1-4)GlcNAc(b1-4)GlcNAc
# Outline: as §1
# [21] = target: Gal(a1-3)Gal(b1-4)Glc
# Outline: as §1
# [22] = target: Gal(a1-3)Gal(b1-4)GlcNAc
# Outline: as §1
# [23] = target: Gal(a1-3)Gal(b1-4)GlcNAc(b1-3)GalNAc
# Outline: as §1
# [24] = target: Gal(a1-3)Gal(b1-4)[Fuc(a1-3)]GlcNAc
# Outline: as §1
# [25] = target: Gal(a1-3)Gal(b1-4)[Fuc(a1-3)]GlcNAc(b1-2)Man(a1-3)[Gal(a1-3)Gal(b1-4)[Fuc(a1-3)]GlcNAc(b1-2)Man(a1-6)]Man(b1-4)GlcNAc(b1-4)GlcNAc
# Outline: as §1
# [26] = target: Gal(a1-3)GalNAc
# Outline: as §1
# [27] = target: Gal(a1-3)[Gal(a1-4)]Gal(b1-4)GlcNAc
# Outline: as §1
# [28] = target: Gal(a1-4)Gal(b1-3)GlcNAc(b1-2)Man(a1-3)[Gal(a1-4)Gal(b1-3)GlcNAc(b1-2)Man(a1-6)]Man(b1-4)GlcNAc(b1-4)GlcNAc
# Outline: as §1
# [29] = target: Gal(a1-4)Gal(b1-4)Glc
# Outline: as §1
# [30] = target: Gal(a1-4)Gal(b1-4)GlcNAc
# Outline: as §1
# [31] = target: Gal(a1-4)Gal(b1-4)GlcNAc(b1-2)Man(a1-3)[Gal(a1-4)Gal(b1-4)GlcNAc(b1-2)Man(a1-6)]Man(b1-4)GlcNAc(b1-4)GlcNAc
# Outline: as §1
# [32] = target: Gal(a1-4)Gal(b1-4)GlcNAc(b1-3)Gal(b1-4)Glc
# Outline: as §1
# [33] = target: Gal(a1-4)GlcNAc
# Outline: as §1
# [34] = target: Gal(a1-6)Glc
# Outline: as §1
# [35] = target: Gal(b1-2)Gal
# Outline: as §1
# [36] = target: Gal(b1-3)Gal
# Outline: as §1
# [37] = target: Gal(b1-3)Gal(b1-4)GlcNAc
# Outline: as §1
# [38] = target: Gal(b1-3)Gal(b1-4)GlcNAc(b1-2)Man(a1-3)[Gal(b1-3)Gal(b1-4)GlcNAc(b1-2)Man(a1-6)]Man(b1-4)GlcNAc(b1-4)GlcNAc
# Outline: as §1
# [39] = target: Gal(b1-3)GalNAc
# Outline: as §1
# [40] = target: Gal(b1-3)GalNAc(a1-3)[Fuc(a1-2)]Gal(b1-4)Glc
# Outline: as §1
# [41] = target: Gal(b1-3)GalNAc(a1-3)[Fuc(a1-2)]Gal(b1-4)GlcNAc
# Outline: as §1
# [42] = target: Gal(b1-3)GalNAc(b1-3)Gal(a1-4)Gal(b1-4)Glc
# Outline: as §1
# [43] = target: Gal(b1-3)GalNAc(b1-4)Gal(b1-4)Glc
# Outline: as §1
# [44] = target: Gal(b1-3)GalNAc(b1-4)[Neu5Ac(a2-3)]Gal(b1-4)Glc
# Outline: as §1
# [45] = target: Gal(b1-3)GlcNAc
# Outline: as §1
binder,measurement,setting,value
B1,glycan array binding signal (z-score),[1],-0.297
same,glycan array binding signal (z-score),[2],-0.332
same,glycan array binding signal (z-score),[3],-0.298
same,glycan array binding signal (z-score),[4],-0.334
same,glycan array binding signal (z-score),[5],-0.299
same,glycan array binding signal (z-score),[6],-0.273
same,glycan array binding signal (z-score),[7],-0.156
same,glycan array binding signal (z-score),[8],0.077
same,glycan array binding signal (z-score),[9],-0.337
same,glycan array binding signal (z-score),[10],-0.336
same,glycan array binding signal (z-score),[11],-0.036
same,glycan array binding signal (z-score),[12],-0.333
same,glycan array binding signal (z-score),[13],-0.346
same,glycan array binding signal (z-score),[14],-0.345
same,glycan array binding signal (z-score),[15],-0.348
same,glycan array binding signal (z-score),[16],-0.349
same,glycan array binding signal (z-score),[17],0.12
same,glycan array binding signal (z-score),[18],-0.303
same,glycan array binding signal (z-score),[19],0.104
same,glycan array binding signal (z-score),[20],-0.292
same,glycan array binding signal (z-score),[21],0.126
same,glycan array binding signal (z-score),[22],0.251
same,glycan array binding signal (z-score),[23],-0.01
same,glycan array binding signal (z-score),[24],-0.337
same,glycan array binding signal (z-score),[25],-0.257
same,glycan array binding signal (z-score),[26],-0.296
same,glycan array binding signal (z-score),[27],-0.334
same,glycan array binding signal (z-score),[28],-0.317
same,glycan array binding signal (z-score),[29],-0.342
same,glycan array binding signal (z-score),[30],-0.337
same,glycan array binding signal (z-score),[31],-0.31
same,glycan array binding signal (z-score),[32],0.118
same,glycan array binding signal (z-score),[33],-0.318
same,glycan array binding signal (z-score),[34],-0.333
same,glycan array binding signal (z-score),[35],-0.342
same,glycan array binding signal (z-score),[36],-0.066
same,glycan array binding signal (z-score),[37],0.213
same,glycan array binding signal (z-score),[38],0.18
same,glycan array binding signal (z-score),[39],-0.085
same,glycan array binding signal (z-score),[40],3.45
same,glycan array binding signal (z-score),[41],1.33
same,glycan array binding signal (z-score),[42],-0.083
same,glycan array binding signal (z-score),[43],0.007
same,glycan array binding signal (z-score),[44],0.047
same,glycan array binding signal (z-score),[45],-0.179
